# Measurements reported in the supplement of paper PMC12217912.
# Some of the results follow. The full chains were built here from the parent and the listed change. Inactive controls read about 0.05.
# B1: TEV protease; numbered along this chain (parent)
# chain: MGESLFKGPRDYNPISSSICHLTNESDGHTTSLYGIGFGPFIITNKHLFRRNNGTLVVQSLHGVFKVKDTTTLQQHLVDGRDMIIIRMPKDFPPFPQKLKFREPQREERICLVTTNFQTKSMSSMVSDTSCTFPSGDGIFWKHWIQTKDGQCGSPLVSTRDGFIVGIHSASNFTNTNNYFTSVPKNFMELLTNQEAQQWVSGWRLNADSVLWGGHKVFMVKPEEPFQPVKEATQL
# Variants of: B1
# Experiment: raw area under fraction-flipped curve 0-4 h after induction (AUC4h, not background-subtracted), DNA-recorder readout of cleavage of the substrate (dimensionless); higher = more cleavage of the substrate by the protease variant
# Conditions: temperature: 34 °C; time window: 0-4 h after rhamnose induction
# Description: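 In vivo DNA recorder in E. coli TOP10(DE3) ΔrhaA at 34 °C. Each TEVp single-site mutant (parent TEVp 0) is paired with a single-site variant of the 7-mer TEVs (canonical ENLYFQ|S). The substrate sits between flexible linkers in a Bxb1-sfGFP-TEVs-SsrA fusion, so cleavage stabilises Bxb1 and speeds flipping of a recombination array, read by NGS. The value is the raw area under the fraction-flipped curve over 0-4 h after rhamnose induction (AUC4h), with ≥20 reads per time point. It is not background-subtracted; inactive controls average about 0.047.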
# 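Note: Bxb1 expression induced with 0.2% (w/v) L-rhamnose at OD600 near 0.5, cultures sampled hourly, flipped fraction per protease–substrate barcode pair counted by paired-end Illumina sequencing.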
Variant,area with substrate ENLYAQS,area with substrate ENLYDQS,area with substrate ENLYEQS,area with substrate ENLYHQS,area with substrate ENLYIQS,area with substrate ENLYKQS,area with substrate ENLYMQS,area with substrate ENLYNQS,area with substrate ENLYPQS,area with substrate ENLYQQS,area with substrate ENLYRQS,area with substrate ENLYVQS,area with substrate ENLYYQS,area with substrate ENLYCQS,area with substrate ENLYGQS,area with substrate ENLYSQS,area with substrate ENLYTQS,area with substrate ENLYWQS,area with substrate ENLYLQS
MGESLFKGPRDYNPISSSICHLTNESDGHTTSLYGIGFGKFIITNKHLFRRNNGTLVVQSLHGVFKVKDTTTLQQHLVDGRDMIIIRMPKDFPPFPQKLKFREPQREERICLVTTNFQTKSMSSMVSDTSCTFPSGDGIFWKHWIQTKDGQCGSPLVSTRDGFIVGIHSASNFTNTNNYFTSVPKNFMELLTNQEAQQWVSGWRLNADSVLWGGHKVFMVKPEEPFQPVKEATQL [P40K],0.0754,0.0472,0.063,0.0713,0.0626,0.063,0.0673,0.0807,0.085,0.0493,0.0453,0.106,0.0687,–,–,–,–,–,–
MGESLFKGPRDYNPISSSICHLTNESDGHTTSLYGIGFGDFIITNKHLFRRNNGTLVVQSLHGVFKVKDTTTLQQHLVDGRDMIIIRMPKDFPPFPQKLKFREPQREERICLVTTNFQTKSMSSMVSDTSCTFPSGDGIFWKHWIQTKDGQCGSPLVSTRDGFIVGIHSASNFTNTNNYFTSVPKNFMELLTNQEAQQWVSGWRLNADSVLWGGHKVFMVKPEEPFQPVKEATQL [P40D],0.0767,0.0549,0.0548,0.0796,0.117,0.0518,–,0.0698,–,–,0.0563,0.133,–,0.0879,0.0582,0.0853,0.0815,0.0887,–
MGESLFKGPRDYNPISSSICHLTNESDGHTTSLYGIGFGFFIITNKHLFRRNNGTLVVQSLHGVFKVKDTTTLQQHLVDGRDMIIIRMPKDFPPFPQKLKFREPQREERICLVTTNFQTKSMSSMVSDTSCTFPSGDGIFWKHWIQTKDGQCGSPLVSTRDGFIVGIHSASNFTNTNNYFTSVPKNFMELLTNQEAQQWVSGWRLNADSVLWGGHKVFMVKPEEPFQPVKEATQL [P40F],0.0856,–,0.0659,0.062,0.102,0.0614,0.082,0.0632,0.0647,0.0634,0.0539,0.103,–,–,0.066,0.0705,0.0834,0.078,–
MGESLFKGPRDYNPISSSICHLTNESDGHTTSLYGIGFGCFIITNKHLFRRNNGTLVVQSLHGVFKVKDTTTLQQHLVDGRDMIIIRMPKDFPPFPQKLKFREPQREERICLVTTNFQTKSMSSMVSDTSCTFPSGDGIFWKHWIQTKDGQCGSPLVSTRDGFIVGIHSASNFTNTNNYFTSVPKNFMELLTNQEAQQWVSGWRLNADSVLWGGHKVFMVKPEEPFQPVKEATQL [P40C],0.0847,0.0359,0.0573,0.0731,0.131,0.0625,0.0841,0.0577,0.0803,0.0638,0.0551,0.109,–,0.0876,0.0649,0.0864,0.08,0.0821,0.102
MGESLFKGPRDYNPISSSICHLTNESDGHTTSLYGIGFGGFIITNKHLFRRNNGTLVVQSLHGVFKVKDTTTLQQHLVDGRDMIIIRMPKDFPPFPQKLKFREPQREERICLVTTNFQTKSMSSMVSDTSCTFPSGDGIFWKHWIQTKDGQCGSPLVSTRDGFIVGIHSASNFTNTNNYFTSVPKNFMELLTNQEAQQWVSGWRLNADSVLWGGHKVFMVKPEEPFQPVKEATQL [P40G],0.0912,0.0529,0.065,0.074,0.133,0.0561,–,0.0628,0.0723,0.0713,0.0498,0.104,0.0698,–,–,0.0753,–,0.0913,–
MGESLFKGPRDYNPISSSICHLTNESDGHTTSNYGIGFGPFIITNKHLFRRNNGTLVVQSLHGVFKVKDTTTLQQHLVDGRDMIIIRMPKDFPPFPQKLKFREPQREERICLVTTNFQTKSMSSMVSDTSCTFPSGDGIFWKHWIQTKDGQCGSPLVSTRDGFIVGIHSASNFTNTNNYFTSVPKNFMELLTNQEAQQWVSGWRLNADSVLWGGHKVFMVKPEEPFQPVKEATQL [L33N],0.0742,0.0378,0.0659,0.0774,0.0788,0.0638,0.0745,0.0579,0.0771,0.0545,0.0611,–,–,0.0704,0.0645,0.0755,–,0.0792,–
MGESLFKGPRDYNPISSSICHLTNESDGHTTYLYGIGFGPFIITNKHLFRRNNGTLVVQSLHGVFKVKDTTTLQQHLVDGRDMIIIRMPKDFPPFPQKLKFREPQREERICLVTTNFQTKSMSSMVSDTSCTFPSGDGIFWKHWIQTKDGQCGSPLVSTRDGFIVGIHSASNFTNTNNYFTSVPKNFMELLTNQEAQQWVSGWRLNADSVLWGGHKVFMVKPEEPFQPVKEATQL [S32Y],0.0758,0.0592,0.0574,0.0688,0.111,0.0534,0.0781,0.0694,0.0865,–,0.0644,0.101,0.0577,–,0.0597,0.112,–,0.0764,0.0915
MGESLFKGPRDYNPISSSICHLTNESDGHTTDLYGIGFGPFIITNKHLFRRNNGTLVVQSLHGVFKVKDTTTLQQHLVDGRDMIIIRMPKDFPPFPQKLKFREPQREERICLVTTNFQTKSMSSMVSDTSCTFPSGDGIFWKHWIQTKDGQCGSPLVSTRDGFIVGIHSASNFTNTNNYFTSVPKNFMELLTNQEAQQWVSGWRLNADSVLWGGHKVFMVKPEEPFQPVKEATQL [S32D],0.0693,–,0.0609,0.0636,–,0.0605,0.0689,0.0816,–,0.0649,0.0549,0.0873,0.0705,0.0375,0.0657,0.0757,0.0635,0.0776,–
MGESLFKGPRDYNPISSSICHLTNESDGHTTRLYGIGFGPFIITNKHLFRRNNGTLVVQSLHGVFKVKDTTTLQQHLVDGRDMIIIRMPKDFPPFPQKLKFREPQREERICLVTTNFQTKSMSSMVSDTSCTFPSGDGIFWKHWIQTKDGQCGSPLVSTRDGFIVGIHSASNFTNTNNYFTSVPKNFMELLTNQEAQQWVSGWRLNADSVLWGGHKVFMVKPEEPFQPVKEATQL [S32R],0.0794,0.0545,0.0803,0.0671,0.134,0.0522,0.0773,0.0638,0.0736,0.0641,0.063,0.0984,0.0707,0.0913,0.0831,0.0759,0.0856,0.0574,–
MGESLFKGPRDYNPISSSICHLTNESDGHTTGLYGIGFGPFIITNKHLFRRNNGTLVVQSLHGVFKVKDTTTLQQHLVDGRDMIIIRMPKDFPPFPQKLKFREPQREERICLVTTNFQTKSMSSMVSDTSCTFPSGDGIFWKHWIQTKDGQCGSPLVSTRDGFIVGIHSASNFTNTNNYFTSVPKNFMELLTNQEAQQWVSGWRLNADSVLWGGHKVFMVKPEEPFQPVKEATQL [S32G],0.0619,0.057,0.0677,0.0474,0.129,0.0697,0.0763,0.0544,0.0708,0.0556,0.0541,–,–,–,0.0464,0.0724,0.0825,0.0859,–
MGESLFKGPRDYNPISSSICHLTNESDGHTTALYGIGFGPFIITNKHLFRRNNGTLVVQSLHGVFKVKDTTTLQQHLVDGRDMIIIRMPKDFPPFPQKLKFREPQREERICLVTTNFQTKSMSSMVSDTSCTFPSGDGIFWKHWIQTKDGQCGSPLVSTRDGFIVGIHSASNFTNTNNYFTSVPKNFMELLTNQEAQQWVSGWRLNADSVLWGGHKVFMVKPEEPFQPVKEATQL [S32A],0.0956,0.0767,0.0579,0.0617,–,0.0582,0.0945,0.0785,0.0772,0.0437,0.0629,0.121,–,0.088,0.0644,0.0643,0.0736,0.0764,0.0538
MGESLFKGPRDYNPISSSICHLTNESDGHTTPLYGIGFGPFIITNKHLFRRNNGTLVVQSLHGVFKVKDTTTLQQHLVDGRDMIIIRMPKDFPPFPQKLKFREPQREERICLVTTNFQTKSMSSMVSDTSCTFPSGDGIFWKHWIQTKDGQCGSPLVSTRDGFIVGIHSASNFTNTNNYFTSVPKNFMELLTNQEAQQWVSGWRLNADSVLWGGHKVFMVKPEEPFQPVKEATQL [S32P],0.0629,0.0606,0.0611,–,0.0593,0.0688,–,0.0939,0.0406,0.0636,–,0.0561,0.0423,–,0.0547,0.0523,0.0599,0.057,–
MGESLFKGPRDYNPISSSICHLTNESDGHTTILYGIGFGPFIITNKHLFRRNNGTLVVQSLHGVFKVKDTTTLQQHLVDGRDMIIIRMPKDFPPFPQKLKFREPQREERICLVTTNFQTKSMSSMVSDTSCTFPSGDGIFWKHWIQTKDGQCGSPLVSTRDGFIVGIHSASNFTNTNNYFTSVPKNFMELLTNQEAQQWVSGWRLNADSVLWGGHKVFMVKPEEPFQPVKEATQL [S32I],0.0722,0.0486,0.0732,0.0509,0.116,0.0542,–,0.0694,0.0661,0.0709,0.0648,0.14,0.0587,–,0.0666,0.0323,0.0795,0.0726,–
MGESLFKGPRDYNPISSSICHLTNESDGHTTELYGIGFGPFIITNKHLFRRNNGTLVVQSLHGVFKVKDTTTLQQHLVDGRDMIIIRMPKDFPPFPQKLKFREPQREERICLVTTNFQTKSMSSMVSDTSCTFPSGDGIFWKHWIQTKDGQCGSPLVSTRDGFIVGIHSASNFTNTNNYFTSVPKNFMELLTNQEAQQWVSGWRLNADSVLWGGHKVFMVKPEEPFQPVKEATQL [S32E],0.0688,0.0618,0.0636,0.0532,–,0.064,0.0751,0.0606,0.0797,0.065,0.0633,0.0865,–,0.056,0.0605,0.0687,0.0702,0.0615,–
MGESLFKGPRDYNPISSSICHLTNESDGHCTSLYGIGFGPFIITNKHLFRRNNGTLVVQSLHGVFKVKDTTTLQQHLVDGRDMIIIRMPKDFPPFPQKLKFREPQREERICLVTTNFQTKSMSSMVSDTSCTFPSGDGIFWKHWIQTKDGQCGSPLVSTRDGFIVGIHSASNFTNTNNYFTSVPKNFMELLTNQEAQQWVSGWRLNADSVLWGGHKVFMVKPEEPFQPVKEATQL [T30C],0.0717,0.0772,0.0503,0.0679,0.162,0.0681,0.0728,0.0658,0.0715,0.0701,0.0587,0.119,0.0515,0.0914,0.0647,0.0758,–,0.0803,–
MGESLFKGPRDYNPISSSICHLTNESDGHSTSLYGIGFGPFIITNKHLFRRNNGTLVVQSLHGVFKVKDTTTLQQHLVDGRDMIIIRMPKDFPPFPQKLKFREPQREERICLVTTNFQTKSMSSMVSDTSCTFPSGDGIFWKHWIQTKDGQCGSPLVSTRDGFIVGIHSASNFTNTNNYFTSVPKNFMELLTNQEAQQWVSGWRLNADSVLWGGHKVFMVKPEEPFQPVKEATQL [T30S],0.0611,0.0653,0.0666,0.0662,0.128,0.0616,0.103,0.0715,0.0784,0.0606,–,0.128,0.0395,–,0.0771,0.0917,–,0.0839,–
MGESLFKGPRDYNPISSSICHLTNESDGHTTSLYGIGFAPFIITNKHLFRRNNGTLVVQSLHGVFKVKDTTTLQQHLVDGRDMIIIRMPKDFPPFPQKLKFREPQREERICLVTTNFQTKSMSSMVSDTSCTFPSGDGIFWKHWIQTKDGQCGSPLVSTRDGFIVGIHSASNFTNTNNYFTSVPKNFMELLTNQEAQQWVSGWRLNADSVLWGGHKVFMVKPEEPFQPVKEATQL [G39A],0.0612,0.0255,0.0521,0.0469,0.041,–,0.0466,0.0386,–,0.0395,0.0303,0.0589,–,–,0.0387,0.0394,0.0548,0.0398,0.0471
